Measurements from the supplement of paper PMC11383711.
Some of the results follow. Binding of human antibodies (heavy:light variable regions, tested as scFv in one mRNA-display pool) to influenza hemagglutinin, with or without the stem antibody CR9114 bound first. Score = (mean enrichment − median) / interquartile range of that screen; higher = more enriched, 0 = typical non-binder. Active = above the paper's cut-off per screen: stems 28; unblocked H1 Solomon Islands 5, H1 Michigan 3, H3 5, H5 19, H7 2.85, both B 5; blocked 9, 7, H5 10, H7 10, B Phuket 10, B Lee 11.5. Scores are scaled within each screen and are no affinities; replicates correlate at about 0.6 to 0.9, and antibodies rare in the pool are noisier.

B1: 042-10-4C01 (protein)
chain 1: QVQLVESGGGVVQPGRSLRLSCPASGFSFTTYGMHWVRQAPGKGLEWVAVISYDGRHQYYGDSVKGRFSISRDKSKNILFLQMNSLRAEDTAVYYCARDFTGYFGMDVWGQGTTVTVSS
chain 2: QSVLTQPPSASATPGQRVTISCSGSSSNVGKASVSWYRQLPGAAPKLLMYNTNQRPSGVPDRFSGSKSGTTASLAISGLQSEDEADYYCGAWDDSRNGFYVFGTGTKVTVL
B2: W85-2A08 (protein)
chain 1: EVQLVESGGGLVKPGESLTLSCAASQFAFRDYAMNWVRQAPGRGLEWVSCINGNSRYTYYADSVRGRFAISRDNAGETLYLQLNSLRAEDTALYYCARGSFGPGSYYTFEHYHMDVWGKGTTVTVSS
chain 2: QSALTQPASVSGSPGEAITISCTGSTSDIENYNSVSWYQQHPGQAPKLIIYDVTNRPSGVPLRFSGSKSGNTASLTISGLQAEDEADYSCSSYSSTTSLYVFGSGTKVT
B3: K77-2C09 (protein)
chain 1: QVQLVQSGAEVKKPGASVKVSCKASGYTFNKYYMHWVRQAPGQGLEWMGVINPSGGSTTYAQKFQGRVTMTRDTSTSTVFMDLSSLRSEDTAVYYCATDIAIVPTAPFYGMDGWGQGTAVTVSS
chain 2: DIVMTQSPLSLPVTPGEPASISCRSSQSLLHSDGHNCLGWYLRKPGQPPQLLIYLGSFRASGVPDRFSGSGSGTDFTLKISRVEAEDVGVYYCMQTLQTPLTFGGGTKVEIK
B4: K77-2D02 (protein)
chain 1: EVQLVESGGGVVQPGGALRLSCAASGFTFSSYGMHWVRQAPGKGLEWVAYISYDGSEKTYADPLKGRFTIARDRSTNTLYLQMNRLRPEDTAVYHCARVKDSYYLEYWGQGTLVTVSS
chain 2: QSALTQPASVSGSPGQSITISCTGTSSDVGIYDLVSWYQQHPGKAPKLMIYEVNERPSGVSNRFSGSKSGNTASLTISGLQTEDEADYYCCSYAGSDTWVFGGGTKLT
B5: R95-1E04 (protein)
chain 1: EVQLVESGGGLVQPGRSLRLSCAASGFSFVDYDMHWVRQAPGKGLEWVSSIRWNSGGIAYADSVKGRFTISRDNAKNSLYLQMNSLRAEDTAFYYCARTEAATVFGDHYSYYYYMDVWGKGTTVTVSS
chain 2: DIVMTQSPDSLAVSLGERATINCKSSQSLFYNSNNKNYFAWYQQKPGQPPKLLIYWASTRESGVPDRFSGSGSGTDFTLTISSLQAEDVAVYYCQQYYTTPLTFGGGTKVEIK
B6: K77-1F06 (protein)
chain 1: QVLLVQSGPEVKKPGASVKVSCKASGYTFTASYMHWVRQAPGQGLEWMGVINPRHGNIAYAKKFLGRVTMTRDTSTSTVYMELTSLRSEDTAVYYCARDLREMDVPGPYGMDVWGQGTTVIVSS
chain 2: EIVLTQSPVTLSLSPGERATLSCRASQTISSSYLAWYQQKPGQAPRLLIYGTSSRATGIPDRFSGFGSGPDFTLTISRLESEDFAVYYCQQYGGSPPATFGQGTRVDIK
B7: 01.h.02 (protein)
chain 1: EVQLLESGGGLVKRGGSLRLSCAASGFTFSAYGMSWVRQVPGGGLEWVSGVGGSGFGTDYADSVKGRFTISRDNSKNILYLQMNTLRAEDTAVYYCAKGVNWQPPYWYDYWGQGTLVTVSS
chain 2: DIVMTQDPVTLPVSLGERATIKCKSSQSVLSSSNNKNQLAWYQQRPGQPPKLLIYWASTRQSGVPERFSGSGSGTDFTLTVDVLLPEDVAVYYCQQYVSTPYTFGQGTKLEIK
B8: W85-1E02 (protein)
chain 1: EVQLVESGGGVVQSGRSLRLSCAASGFTFSSYALHWVRQAPGKGLEWVAVISYDASEKYYADSVKGRFTISRDKSKKTLYLQMNSLRAEDTAVYYCARSHFYYDSGDYWGQGTLVTVSS
chain 2: DIQMTQSPSTLSASVGDKVTITCRASQSINRWLAWYQQKPGKAPKLLIYRASSLESGVPSRFSGSGSGTEFTLTISSLQPDDFATYFCQHYEGYSWTFGQGTKVDIK
B9: SFV015-1F04 (protein)
chain 1: QVQLVESGGGVVQPGRSLRLSCTASGIIFSNYAMHWVRQAPGKGLEWVAVISYDGYIPYYTDSVQGRFIISRDNSKNTLYLEMNSLRAEDTAFYFCARDKYRDGDRLDYYYYMDLWGQGTTVTVSS
chain 2: EIVLTQSPVTLSLSPGERATLSCRASQSVSNYLAWYQQTPGQPPRLLIYDASHRATGIPTRFSGAVSGTDFTLTISSLEPEDFAVYYCQLRSNWPPLFTFGPGTKVDIK
B10: C8-A06 (protein)
chain 1: VQLVQSGVEVKKPGASVKVSCKTSGYTFTSFDIDWVRQAPGQGLEWMGWMNPNSGTTGYAQKFQGRVTMTRNTSISTAYMELSSLRSDDTAVYYCARGKSTITTYWFDPWGQGTLVTVSS
chain 2: DIVMTQSPDSLAVSLGERATINCKSSQTVLSNSNNENYLTWYQQKPGQPPRLLIYWASTRESGVPDRFTGSGSGTDFTLTISSLQAEDVAVYYCQQYYSNPYTFGQGTKVEIK
B11: W85-3G10 (protein)
chain 1: EVQLVDSGGGVVRPGRSLRLSCAASGFTFSSYAMHWVRQAPGRGLEWVTFISHDGSNVYYADSVTGRFTISRDNSKNTLYLQMNSLRVEDTAVYYCARDYCSTSSCYVDYWGQGTLVTVSS
chain 2: NFMLTQPHSVSESPGKTVTISCTGSSGSIAYNYVQWYQQRPGSAPTTVIYEDNHRPSGVPDRFSGSVDSSSNSASLTISGLKTEDEADYYCQSYDSSNHVVFGGGTTADRP
B12: R95-2A07 (protein)
chain 1: QVQLVQSGSEVKKPGASVKVFCKASGYTFFNHYIHWVRQAPGQRLEWLGWVNTGNGDTKYAQKFQGRVTITRDTAARAAYMELSSLMSEDTAIYYCAREGTLGWGWDLRNEFYFMDVWGTGTTVIVSS
chain 2: QSALTQPPSVSGAPGQRVTISCTGSSSNIGAGFEVHWYQQLPGSAPKLLISGSGARPSGVPDRFSASKSATSASLAITGLQAEDEADYYCQSYDSTLSGVLFGGGTKLTVL
B13: 045-09-1G05 (protein)
chain 1: QVQLQESGPGLVKPSQTLSLTCAVSGDSISSGIYFWSWIRQPPGQGLEWIGRVFKTGTTDYNTSLKSRVTISVDTSKNQFSLKVSSATAADTALYYCARETPADRPYCGSGSCSFDSWGQGILVTVSS
chain 2: DIQMTQSPSSLSASVGDRVTITCRASQNINNNLNWYQQKSGKAPKFLIYAASHLQDGVPSRFSGGGSGTDFTLTIASLQPEDFATYYCQQSFTTLGSTFGQGTKVEIK
B14: C1-2-2D06 (protein)
chain 1: VQLQESGPGLVKPSETLSLTCTVSDYFINNGYYWAWIRQAPGKGLEWIGSIYHSGSTFYNPSLKSRVTISVDTSENQISLRLRSVTAADSAVYYCARQSIYTGNHFPKFDPWGQGTLVTVSS
chain 2: AIQLTQSPSSLSASVGDRVTITCRASQGISSALAWYQQKPGKTPKLLIYDTSNLESGVPSRFSGSGSGTDFTLTISSLQPEDFATYYCQQFNSYPPEVTFGGGTKVEIK
B15: 017-10-5E01 (protein)
chain 1: QVQLQESGPGLVKPSQTLSLTCNVSGISMSSPGSFWSWLRQRPGKGLEWLGYVSHSGHTKYTPSLKSRLSISLDVSQDQFSLRLNFVTAADTAVYYCAREYQEQIGRAFDFWGQGTLVTVSS
chain 2: DIQMTQSPSSLSASVGDRVTITCRASQRINTFLNWYQLKPGKAPKLLIYAASHLQSGVPSRFSATGFGTDFTLSISSLQPEDLATYYCQPTFTPSYTFGQGTKVEIK

Each binder was assayed against H1 HA stem construct (mini-HA #4900) (assay: mRNA display binding score; higher = more enriched on the antigen). Details: antigen blocked with: nothing.
Experimental: (§1)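 A pool of natively paired antibodies, displayed as scFv on mRNA, was selected once on antigen-coated beads and sequenced before and after; two replicates.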
In the case of B1, the “mRNA display binding score” value is reported as inactive: -0.353. B2 was tested, and the “mRNA display binding score” value was inactive: -0.305. For B3, the “mRNA display binding score” value was inactive: -0.194. In the case of B4, the “mRNA display binding score” value is reported as inactive: -1.13. For B5, the “mRNA display binding score” value was inactive: -0.0534. B6 was tested, and the “mRNA display binding score” value was inactive: 0.0043. For B7, the “mRNA display binding score” value was inactive: -0.167. For B8, the “mRNA display binding score” value was inactive: 0.589. B9 was tested, and the “mRNA display binding score” value was inactive: 0.442. With B10 the “mRNA display binding score” value was inactive: 0.176. In the case of B11, the “mRNA display binding score” value is reported as inactive: -0.0289. B12 was tested, and the “mRNA display binding score” value was inactive: -0.171. For B13, the “mRNA display binding score” value was inactive: -0.595. In the case of B14, the “mRNA display binding score” value is reported as inactive: -0.718. B15 was tested, and the “mRNA display binding score” value was inactive: 0.0492.

The binders below were run against H3 HA stem construct (H3ssF) in the same assay as above. Details: antigen blocked with: nothing.
Experimental: as §1
B1 was tested, and the “mRNA display binding score” value was inactive: -0.601. B2 was tested, and the “mRNA display binding score” value was inactive: -0.245. With B3 the “mRNA display binding score” value was inactive: 1.71. With B4 the “mRNA display binding score” value was inactive: -0.659. With B5 the “mRNA display binding score” value was inactive: -0.0928. B6 was tested, and the “mRNA display binding score” value was inactive: -0.512. In the case of B7, the “mRNA display binding score” value is reported as active: 29. With B8 the “mRNA display binding score” value was inactive: -0.0453. For B9, the “mRNA display binding score” value was inactive: -0.0536. With B10 the “mRNA display binding score” value was inactive: -0.302. With B11 the “mRNA display binding score” value was inactive: 0.418. For B12, the “mRNA display binding score” value was inactive: 1.44. With B13 the “mRNA display binding score” value was inactive: 26.3. B14 was tested, and the “mRNA display binding score” value was inactive: -0.474. In the case of B15, the “mRNA display binding score” value is reported as inactive: 0.624.
